In the supplement of paper PMC3334620:
The full ranking holds about 33,000 sequences; the median of “E-score (-0.5 to 0.5)” is about -0.054, and the highest 2% start at about 0.35. Some of the results follow.

target: T1, Stb5 (UniProt P38699); assay: PBM E-score (8-mer binding enrichment) (E-score (-0.5 to 0.5)); higher = stronger / more preferred TF binding; most listed sequences are background and not binding sites; settings: protein concentration: 200 nM; construct: GST-full length
T1 sequence: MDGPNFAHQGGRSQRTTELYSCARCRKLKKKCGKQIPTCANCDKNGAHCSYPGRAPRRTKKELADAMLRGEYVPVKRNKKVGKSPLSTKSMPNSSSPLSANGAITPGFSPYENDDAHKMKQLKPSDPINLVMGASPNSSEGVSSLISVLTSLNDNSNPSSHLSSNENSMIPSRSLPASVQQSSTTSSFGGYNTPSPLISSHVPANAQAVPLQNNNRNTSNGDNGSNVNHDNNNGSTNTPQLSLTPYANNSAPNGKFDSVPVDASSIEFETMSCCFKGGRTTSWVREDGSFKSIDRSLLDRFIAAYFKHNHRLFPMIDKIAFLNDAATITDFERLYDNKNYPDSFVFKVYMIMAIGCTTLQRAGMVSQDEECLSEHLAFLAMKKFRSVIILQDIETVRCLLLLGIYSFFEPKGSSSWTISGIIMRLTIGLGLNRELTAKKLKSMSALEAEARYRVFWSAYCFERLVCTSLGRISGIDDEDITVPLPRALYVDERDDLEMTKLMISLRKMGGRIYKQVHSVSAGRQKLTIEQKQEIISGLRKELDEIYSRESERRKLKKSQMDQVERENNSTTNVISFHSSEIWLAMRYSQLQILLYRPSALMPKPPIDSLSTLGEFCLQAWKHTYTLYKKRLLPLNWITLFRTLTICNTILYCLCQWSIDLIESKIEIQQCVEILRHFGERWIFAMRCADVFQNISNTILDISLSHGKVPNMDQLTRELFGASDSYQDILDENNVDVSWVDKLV
Method in brief: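 E-scores (a modified Wilcoxon-Mann-Whitney statistic) were assigned by the Universal PBM Analysis Suite to every ungapped eight-base word pooled with its reverse complement. The input came from universal all-10-mer Agilent arrays made double-stranded by primer extension and probed with GST-tagged yeast transcription factors at about 100-200 nM. Fluorescent anti-GST detected bound protein, and masliner normalised the scans.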

Sequence	PBM E-score
ACACTTGA	-0.313
GAAAGTAC	0.0695
AGCGAAAG	-0.138
AGACAATA	0.0255
ACCGCTAA	0.263
CATTATCA	-0.186
GCGAGAGC	-0.0606
AATTTAAT	-0.0265
CAAATGCA	-0.234
AATTTGCT	-0.197
GCAAATGA	-0.15
CGAAAGAG	-0.0144
TAGTATGA	-0.0857
CCGAGCCA	0.0835
CTCGGTCA	0.0495
AAGTGATC	-0.0808
ATATTGGA	-0.0664
TCAGGAAA	-0.121
GATTACGC	0.0466
TAGTGGGA	-0.176
ACCCGGGG	0.185
CAGAAGAG	-0.369
ACTATCTA	-0.0951
ATTCCGTG	0.00715
AAATTTGT	-0.147

Sequence	PBM E-score
GAGAAGAC	0.0739
AGGAAGAT	-0.00894
CCGTCGCG	0.311
GGTGTTTA	0.425
CAGCCTCG	-0.124
GAGCAAGA	-0.134
CCGAGAGG	-0.0851
GTTCGGGA	0.192
CCTGCCCG	-0.0878
AGAATGTG	-0.184
GTGAGATA	0.0545
CCACGAAG	-0.143
ATCCGAGC	0.132
CCGTGCCG	0.202
CTTTACCA	-0.104
AGACTAAA	0.0418
CACGCCAG	-0.15
CGTACAAA	-0.119
CCATGCCC	-0.151
CTGCGCAG	-0.271
ATCTTCTC	-0.237
CCTGGATC	-0.132
CTCACGCA	-0.17
CGAACCTA	0.0665
ACCCGCAA	0.0571

Sequence	PBM E-score
ACTTGTTA	-0.206
ATTATAAC	0.271
CTGGGCCA	-0.209
AGGAGTCG	-0.179
GTGTTAGA	0.0904
GCGACTGA	-0.188
AAATCTAG	-0.0991
CAACGATA	-0.125
ATGCCAAC	-0.223
AGATCCGC	0.335
CAGCACAG	-0.197
TCAGGCGA	-0.158
ATTAGTGC	-0.00685
GCTGGCAA	-0.0853
AATAGGGA	-0.203
CACAGCGG	0.286
GAACAATA	-0.00358
CAAGAATA	0.163
ATCTACGC	0.0993
TAAAAGAA	-0.0275
TGGTAGAA	-6e-05
CAGGCGGG	0.31
CATACTGC	-0.045
CCCTACCG	0.0937
ACCGCTCC	0.323

Sequence	PBM E-score
ACAGTCAT	-0.117
AACAGTCA	-0.127
CGGTAACC	0.165
AGTGGCAC	-0.189
GTTCAAAC	0.0508
ATGAAGAG	-0.154
AAGTGAGG	-0.175
CTTCGAAA	-0.113
ATGACTCA	-0.218
AAGCCGTC	0.243
GAACCTGC	-0.191
AGATTTAC	-0.0949
ACTGTCAT	-0.224
AAGAACAA	-0.00493
AAACAGGC	-0.0952
GGAGAGAA	0.00508
ATGGTACC	0.14
TGCACACA	-0.204
CTTCGATC	-0.0804
CATGGCCG	0.187
CACAACGG	0.166
CCTTGAGC	-0.116
GATCCGTA	0.0229
ATGGAAGG	-0.0839
AGAAATAA	0.0401

Sequence	PBM E-score
GCCATAGA	-0.177
AATGGTGA	-0.231
AGACTTAA	-0.288
CGGGCTGA	0.268
AATCTTAA	-0.311
CGGCGAAA	0.322
ATCCGGAG	0.338
CGCCTGTA	-0.0623
AATAAATG	-0.0719
AAACAATG	-0.214
AGAAGTCG	-0.00257
CATGTCTA	-0.124
GTGGGCTA	-0.172
GTGGATGA	-0.322
CCCACCGG	0.303
ACATGCAT	-0.0948
TTATGGAA	-0.107
GTCAGAGA	-0.214
ATTGACGA	-0.223
ATGCAAAC	0.0134
CCCATAAA	-0.0614
CAGCCTGA	-0.0968
ACTTTTAC	0.0445
ACAGGAGT	-0.0725
AGCACGGC	0.108

Sequence	PBM E-score
ACTTAGAA	-0.195
GAGTCCCC	-0.12
ATCCAATC	-0.0691
TACGCTGA	-0.0453
GAGCAGGC	-0.173
ATCATAAG	-0.0407
TAGGCCAA	-0.145
AGCCCCGA	0.397
ATTCGATC	-0.0404
GACAGGCA	-0.142
ACTGAAGT	-0.0569
GTGGGTAA	-0.154
CGGTGTAA	0.438
AAAGTATT	-0.252
CACGCGCC	0.0996
GGTATAGA	0.0987
ATGTTTAC	-0.0155
ATAACTAA	-0.0869
CACGTCAG	-0.163
CGTAGGAG	0.125
ACTGGTCC	0.2
GGAGGTGA	0.00073
TCCATCAA	0.0779
AAACCTTG	-0.246
GGCTGCAC	-0.12

Sequence	PBM E-score
GGCATTAA	0.317
AGTCAACC	-0.11
GATGCTTA	0.0976
GCGCAGAA	-0.178
AAGTATCT	-0.104
CGCTCAAC	-0.0617
ACCCCCGC	0.398
AGCAGGAT	-0.108
ATAATAAT	-0.0963
ACATTCGA	-0.0522
GTTGGGAA	-0.19
GAACAGAC	0.0276
GGGATATA	0.272
AGCCGGGC	0.134
TACAGAGA	-0.241
CGTTCCAG	0.0717
ACTTGGGG	-0.141
CCAGAGAA	-0.209
GCAACTGC	-0.112
AATGCCCA	-0.283
ATCTCGGC	0.0388
GCCCATTA	-0.218
